# Experimental data published in the supplement of paper PMC11417369.
# ± gives the standard deviation of the averaged measurements. Some of the results follow.
# Test system: PfAP2-EXP AP2 domain (GST-tagged)
# Assay: gcPBM binding intensity (ln(normalized median fluorescence intensity)); higher = stronger DNA binding
# In short: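 Binding intensity is defined as the maximum Masliner-normalised natural-log median intensity across replicate spots for either probe orientation. It was measured on an Agilent 4 × 180k array of primer-extended double-stranded 36-bp intergenic genomic probes and negative controls, to which GST-tagged P. falciparum DNA-binding domains made in E. coli were applied for 1 h in 1× PBS with 1% milk, 0.2 mg/ml BSA, 0.5% salmon testes DNA and 0.03% Triton X-100. Detection was by Alexa488 anti-GST antibody and scanning at 488 nm.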
row,Sequence,gcPBM binding intensity (ln)
1,TTAACTATGAATACATGTACATGAAAATATTTCAAT [XGTACX_site1069],8.89 ± 0.22
2,AAATTAATAAAAAATGGTACACAAAATGGATGTATA [XGTACX_site1561],8.76 ± 0.36
3,AAAATTAAACAAAGTTGTACAAAATAATAATAAAAG [XGTACX_site7515],8.95 ± 0.34
4,GGCAAATTTATTATACCCACATACATACATACATAC [XGTACX_negctrl_site186],9.42 ± 0.042
5,TTTATATTAATTGATGTGCACTGAAATATTTGTCCA [GTGCAC_site9655],8.54 ± 0.22
6,ACCCTATAGGTAACTACACACCGCATATTGTTTACT [CACACA_site7436],8.8 ± 0.55
7,TTATAAATAAAAAATACACACATATATTTATTTATA [CACACA_site6242],8.11 ± 0.5
8,ATAATATATGAAAGTGGTACACAAAGGAAAATAAAA [XGTACX_site333],9.14 ± 0.57
9,TGTAGTCTGGAGAAAAGTACACAGTATCCGGTAACT [XGTACX_site4934],8.6 ± 0.39
10,AATAATAAATCAAACTGTACATATATTTTCAATCTA [XGTACX_site3344],8.2 ± 0.33
11,TTTTTTTTTTTGTTCACACATATATATATATATATA [CACACA_site5376],10.2 ± 0.37
12,TATACATACACATACACACATACACCCATACACATA [CACACA_site1746],8.77 ± 0.45
13,TTCTTCTAATCCTTTTATCTCATTAAAAAAATATAA [CACACA_negctrl_site12],8.56 ± 0.36
14,ACGTGTATTTATTTAGTGCACTTTATATTTTTTCTT [GTGCAC_site9426],9.72 ± 0.49
15,GGTTATATATTTTTTGCACACCAAAAAAGAGAATAT [CACACA_site2731],8.68 ± 0.3
16,ATCCTAATATTGAACTGTACCTTATATGTTATTATA [XGTACX_site1014],8.77 ± 0.42
17,TATATATATATATATACACACATATATACATATATA [CACACA_site4043],10.1 ± 0.38
18,AATACATATAATACAACACACAAGTAATATAAACCT [CACACA_site3597],8.87 ± 0.53
19,GGATATAACAAACACACACACACATATATATATATT [CACACA_site4141],8.59 ± 0.19
20,TTTAAATGAAAAAAAGGTACACAATATTATTCTTAT [XGTACX_site8612],8.37 ± 0.33
21,AATACTTATTATGAAACACACACCAAAACTACATAA [CACACA_site270],8.83 ± 0.69
22,AAGAAAAAAAAAAATATATATACATATATATATATA [TGCATGCA_negctrl_site485],9.95 ± 0.23

row,Sequence,gcPBM binding intensity (ln)
1,AAAAAAAAAAAACACACACACACACTAGTATATAAA [CACACA_site4783],8.53 ± 0.61
2,AATGTATATATATATATATATATATATATTTATTTA [CACACA_negctrl_site113],8.43 ± 0.14
3,AAGAAAATAGAAAATACACACAGCAAACAGAGGAAT [CACACA_site3785],9.1 ± 0.61
4,ATATATATATATTTATGTACATATATTTTTTTTTTT [XGTACX_site8558],9.73 ± 0.28
5,ATGAAACATGTATATTGTACTCTGGATCAATTTAAT [XGTACX_site6413],8.29 ± 0.31
6,ATATTTAATTAAAAGAGTACTTAAATAAAATAAATG [XGTACX_site2149],8.43 ± 0.3
7,AAGCCTTAAAAGGAAAGTACGTATATATATATATAT [XGTACX_site8559],10.1 ± 0.43
8,AATAAATAAATACATCTCAGTATATAAACAAACAAA [CACACA_negctrl_site1604],8.62 ± 0.43
9,AAATTTATTATATATACATGCAATCATAAATAATGT [TGCATGCA_site539],8.8 ± 0.3
10,TAAGTATAAAAAAATAGTACAATTATGAAATATCGT [XGTACX_site2529],8.87 ± 0.52
11,GGTCTAACAACATGCGCACACACATGAATATTCATA [CACACA_site1539],9.05 ± 0.13
12,TTTTTTTTTTTTTTATGTACACATCTAAAAAAAAGG [XGTACX_site2067],8.34 ± 0.38
13,GCCCCCTAAAAAATTACACACGAAAAAAATGAATTT [CACACA_site9128],9.91 ± 0.35
14,TTTAACAAGTTAAACACACATACATATATACATATA [CACACA_site2536],8.31 ± 0.42
15,ATTTGTTCCTTGGGAGTTTACTTTTTTTTAATTTTA [CACACA_negctrl_site638],8.74 ± 0.44
16,TTAAAAAAAAAACACACACACATACCCATATATATA [CACACA_site5768],8.74 ± 0.33
17,TATAAAAATATATATATATATATATATATAATATGT [TGCATGCA_negctrl_site85],8.54 ± 0.13
18,TTCTTTTTAATTAATACACACACACCCATATATATA [CACACA_site8719],8.83 ± 0.42
19,AAAAAATTAGATTATGCACACACACTAATAAATAAT [CACACA_site8604],8.62 ± 0.27
20,AACAAAATTGAAGGAACACACATACATATTTATATA [CACACA_site6227],8.65 ± 0.55
21,CATATAAATACATGCACACAAAAATATCAATACATT [CACACA_site2392],8.94 ± 0.29
22,TTTATTTAAGAAAAATGTACAGGTTCATTTCATAAT [XGTACX_site27],8.2 ± 0.17

row,Sequence,gcPBM binding intensity (ln)
1,GAAAAATTAAAACCTACACACACATTTAAAAAAAAA [CACACA_site9005],8.46 ± 0.49
2,ATAAATACATATGTGTGTACACATTATATATATATA [XGTACX_site1486],9.68 ± 0.34
3,TATATATTACATACATGTACCCAAAAAAAAAAAAAA [XGTACX_site1168],8.42 ± 0.48
4,ATATATATATAATCATCACACATGCAGCCCTGATGA [CACACA_site5500],9.77 ± 0.19
5,GAATGAATACGTTTTACACACTTGAATCTAATTTCA [CACACA_site6593],8.55 ± 0.38
6,ATTCTACTTTTATTTATTTATTTGTTTATATATATA [XGTACX_negctrl_site609],9.12 ± 0.49
7,TTTTTTATTCATGTAACACACATTTAATTATGAATT [CACACA_site2706],8.51 ± 0.43
8,AAAGAATTTGCATATACACACAAAAAAATATATACA [CACACA_site386],8.6 ± 0.51
9,GTGTAGATATTGAAATGTACTCTCCATATAAAATAA [XGTACX_site4713],8.38 ± 0.3
10,ATATATATATATATATGTACTTATTTATTTATATTA [XGTACX_site4646],10.3 ± 0.39
11,TTACGATACTTTAGGTGTACACAAATATACATGAAT [XGTACX_site4322],8.97 ± 0.33
12,TATAAATATAAATATACACACATATATATATATATA [CACACA_site1678],9.99 ± 0.4
13,TTGCATTAATTTATGTGTACATATAAATTTTTATTT [XGTACX_site3060],8.64 ± 0.3
14,ATCAGTCGGCAGGACAGTACACAGTAGCCAGAAAAT [XGTACX_site2550],8.71 ± 0.45
15,CTTATAGGTCATTTCCTTGACCCCCTTTGTTGTACT [CACACA_negctrl_site551],8.71 ± 0.33
16,TAAAAAAATATTACATGTACATAAAATATATATATA [XGTACX_site4633],9.52 ± 0.26
17,CAATTATATAATTGAAGTACTAGGAAAGATATATAT [XGTACX_site5459],9.01 ± 0.51
18,TTTAAAAAAAGCAGTACATGCAAAATAATAACAAGC [TGCATGCA_site392],9.62 ± 0.23
19,AATTAAATTCGGTACTGTACATTTCAAAAATATACG [XGTACX_site48],8.38 ± 0.38
20,CTTAAATTTTACTGAAGTACAAAATCGGTTCAATGA [XGTACX_site3292],8.23 ± 0.42
21,GGGAAAAAAAAAAGCACACATACGTAAATATATAAC [CACACA_site226],8.83 ± 0.57
22,TATACATATTTTTTTTGTACATATATAATATATATA [XGTACX_site2399],8.48 ± 0.35

row,Sequence,gcPBM binding intensity (ln)
1,ATGTGTTAAAAATGCACACAAAAAAATATACATATA [CACACA_site295],8.6 ± 0.42
2,ACATGTGAACATTCAATGCACACGATGTAATTATAC [CACACA_site14],8.78 ± 0.31
3,ATATTATATATATACACACACACATGCATGCACCTA [CACACA_site106],10.07 ± 0.099
4,TTTTTTAAATATATGGTGCATAGAAAGATATTATAC [GTGCAC_site9984],8.9 ± 0.3
5,TCATTAAAAACTAAAAGTACTCAATATTATGAACAT [XGTACX_site7807],8.54 ± 0.52
6,GGATTTATTATATATACACACATACAGATATATATA [CACACA_site5222],8.48 ± 0.3
7,TGTAGAAATGGGTGCACACACATATAAAATCTATAT [CACACA_site7224],9.25 ± 0.51
8,TAAAAAAATAAATATACACACATATATATATATATA [CACACA_site1089],10.2 ± 0.29
9,CATATATATTTGTTCACACACACACTAGAAAAAAAA [CACACA_site5380],8.72 ± 0.59
10,ATAAAAAATAAAATAAATAAAAAATATTTACCCTTA [TGCATGCA_negctrl_site396],7.95 ± 0.44
11,ATATTGTAGATATTGTGTACATATTTTACAACTTTT [XGTACX_site7621],8.41 ± 0.15
12,TATGTACACCCATATACACACCTCTATAATATATAT [CACACA_site4563],8.86 ± 0.43
13,AAACAAAATTTATTTCAAAGTTAATAATTTTTATGT [CACACA_negctrl_site232],7.91 ± 0.47
14,ACATCATATTAAGAAAGTACAAAAAGAGAACATATA [XGTACX_site1268],8.99 ± 0.33
15,TTGTTCGATATATGCACACAGTTTTGTTATTTTTCC [CACACA_site4972],8.89 ± 0.41
16,ATGAATAAATAGGTCACACACAAATATATATAAATA [CACACA_site2416],8.87 ± 0.47
17,CACTACACTGTTAATAGTACATATATTTAAAAAAAA [XGTACX_site7371],8.37 ± 0.35
18,CACACCCACCAACACACACACAAAAAAAAAAAGAAA [CACACA_site500],8.41 ± 0.63
19,ATATTTTATTTTAATACACACAAGTTATATAATCAC [CACACA_site780],8.41 ± 0.36
20,AAAAGGTATAGAAACACACACACGTGAATATAGTTT [CACACA_site1905],8.73 ± 0.54
21,AAAAAAAACGGACACACACACATAAATATATATAAA [CACACA_site4260],9.02 ± 0.4
22,ACATATGTTTTATGTAGTACTTATTTATTATTATAT [XGTACX_site7528],8.74 ± 0.27
